# Measurements taken from the supplement of paper PMC12632987.
# The full ranking holds about 2,300 sequences; the median of “median log2 fold change of GCK-ALFA target abundance (FLAG IP / Myc IP barcode read proportion)” is about 0.095, and the lowest 2% start at about -0.47. The list shows a part of the results.
# B1: LC3A_3_1738 (protein)
# chain: MEERLEEVRERLEELGFSEEVIEAALELARALLERGFEEAVETLLEKLEELKDLPDEILIAMLEDILRYVRENDLSEEEVIEKIEEEATVARNEAEIEEL
# B2: LC3A_59_2019 (protein)
# chain: MEEIEEYREKLREAIDNIDEFVEIVREGLEKFKDDKEKVEALLEEVMEVIVEELGADPEEAEKVLKRMKEIFKTEKDKEKAIELVVDEIRDLLLLTPIEE
# B3: LC3A_13_347 (protein)
# chain: TINITAETPEELLKKSKAALEAHPGQTLNITVTINNEEEAEAVAEAIKEIIDLAIEKGNKLNITLKGKRDLVLYAALLVGSYLFEKNGQIDANVSIEEVE
# B4: LC3A_141_358 (protein)
# chain: ATQTKTITLEAKTEEEAEKVAEEIGKAIRDFMKATGAETVTLTLTITSYNEKTGETKTRTETLTVTWENLDMVEEGILITILSEFEKGATHITVTATITT
# B5: LC3A_45_1919 (protein)
# chain: MWEAVVDILVPREDLEKALAVIREVAREIEEETGGAVRFDLEGLDASAEASRDEEEVYLRVTIYAPTRELALDAADRIVERLEEALGRKVAAAISYRELP
# B6: LC3A_141_360 (protein)
# chain: ETKTETWTFTATTFEEAEKVAKEIGEKIRKFMKETGAKEVTVTITITSYNKKTGETKTETHTDTVTPENLDLFEEGVLIDLLSQFENGADEVKVTVTMES
# B7: LC3A_3_1512 (protein)
# chain: MEEFIKELKELLESFGASEEVIELAVENLKLLLERGYEEAAKTFFELIKEMKDLSNEDLLEFNKEVLELLKSTDLSEEEIIEKIKEIAKTTKNASEIEEL
# B8: LC3A_127_197 (protein)
# chain: EEEKLLEEAIKLAEKLSEELQKEDYDLEKLKELAEKLLEVLKKLVELNPRFEPLLKDAEQILELLEKMEELNEAEQEELREHLLMLVEGVIIELLSLSLE
# B9: LC3A_28_1172 (protein)
# chain: SAIEKNVEEALARAEEARKKKEPTVITIKVPDGATQEEIDLVIEAMERIAELLKDIKGAAIVIDVGGGVKQEHIDLLMEKADEIEKKYPNVNVIIALDED
# B10: LC3A_147_402 (protein)
# chain: PKLVATIDVLGEKSKELAIESAKALAEELKAKGAEVELEIEEEELEPGEVYVRITITVKTETEELLKEAEALILDRYDKLSEEIAALGGASILSIDRVEE
# B11: LC3A_free_39_2179 (protein)
# chain: SEEEEEEVEEEILELAEEVGEEAKEIAEEILELVEGNLELKKLILEGLKKLKEEGGDVLEALKRILEIVKEGLKEGLSWEEIKKRIKEELEDFLNLIPLD
# B12: LC3A_28_742 (protein)
# chain: SALDEQLAAALAEAKAAAAAGEPQVITITVSGTANQEDIDKVIAALEEIAAILKDVKDQAIIVDVDGKLDQDLLTKLADAAEAIEKKYPNVTVIIALDEE
# B13: LC3A_free_46_2295 (protein)
# chain: YIVEIDVYLDGLTEEQAKEFVEELKKRLEEIAKKYGVEIKIDVKIEKNEDGTYFVEIDITIKAPTKELAEKVKNEVIDVIDELAEKYGASYIISYEIEEA
# B14: LC3A_3_1348 (protein)
# chain: SEELIEKQVERLREAGFSEEVIEAARRLLELLAKKGHEKAMERVVEVLLKHKDAPEEKIIEALNNAARELEENPNATEEEVEELIKLLENDLEIEPIEEE
# B15: LC3A_28_669 (protein)
# chain: GSLKEALEKKLAEAKKAAAAGEPTVFVIEVPGDATEEDIEYFIEKLEEIAELLKNVKGSAIIVDLSGKLSEEHRNKIIDKAEEINKKYPNVTVIIALEDE
# B16: LC3A_45_1993 (protein)
# chain: MYKATVDILVPKELAEEVYEAVKEIAEELVKESGGKVKVDWETLEKSYEATKDEEEVLLEVNIYAEDKDLALDAADRLEERLHEKFGDSIASIISVEEVP
# B17: LC3A_45_2002 (protein)
# chain: MWEITVDLLGPKAKVERAVALIREAAAAFSAATGVTVEVDLSEAEEALASEKNEEEVFVTVTIRLAGDQADADALVQALDAVHAQVGPDVAMVISVEEVP
# B18: LC3A_3_1598 (protein)
# chain: MEELVEELLKKLKEAGLPEEVLKAARKVLEALAEKGFEEAAKTLAEELLELKDAPPEDLLDMLEEILRKVETEDLNEEEVIELIKEEARVLREGLEIEEL
# B19: LC3A_132_319 (protein)
# chain: MEEKYKKILEEIKKKIEEARKNIDDEEKVKKLVEEIKKLLKEAEKILTPEQVAELAEEAARRLDEVSREAEKAGKENVALIFDGAAVEAAAIAIRAEEKI
# Biological target: MAP1LC3A, Q9H492
# Test: median log2 fold change of GCK-ALFA target abundance (FLAG IP / Myc IP barcode read proportion) (log2 ratio); each designed protein is fused to an ALFA-tag nanobody in HEK293 cells to bring the named protein to FLAG-tagged glucokinase (GCK); Myc marks an untargeted standard; higher = target protein stabilised (more abundant)
# Conditions: target protein: 3xFLAG-MCP-GCK-ALFA reporter; HEK293 landing pad (RPLP)
# How it was run: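 Binders fused to an ALFA nanobody were recombined as a library into HEK293 landing-pad cells, which were induced with 2 μg mL^−1 doxycycline and then transfected to express a FLAG-tagged target and a Myc-tagged standard. After 48 h, circular RNA barcodes recovered by anti-FLAG and anti-Myc immunoprecipitation of lysates were reverse transcribed, amplified and sequenced. Each binder's target abundance is the median log2 ratio of FLAG to Myc barcode read proportions, from barcodes present at ≥10^−7 in both replicates, binders carrying ≥3 barcodes per replicate, a 10^−6 pseudocount and pooled replicates.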
row,Binder,median log2 fold change
1,B1,0.2
2,B2,-0.514
3,B3,-0.0255
4,B4,0.25
5,B5,0.142
6,B6,0.363
7,B7,0.354
8,B8,0.142
9,B9,0.121
10,B10,0.127
11,B11,0.159
12,B12,0.197
13,B13,0.036
14,B14,0.271
15,B15,-0.167
16,B16,-0.314
17,B17,-0.0111
18,B18,0.257
19,B19,0.217
